Laboratory results: the supplement of paper PMC7125110
± gives the standard error. This sample is rich in variants without activity.

B1: glmS ribozyme (parent)
chain: AUAAAAGCGCCAGAACUACAGAAAUGUAGUUGACGAGGAGGAGGUUUAUCGAAUUUUCGGCGGAUGCCUCCAAA

Experiments:
Details in all cases: with glucosamine-6-phosphate
glucosamine-6-phosphate [1] = variants of: B1; experiment: self-cleavage kobs at 40 uM GlcN6P; higher = faster cleavage; RNA array
Summary of the method: (§1)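 kcat and KM were obtained from weighted Michaelis–Menten fits across concentrations of kobs values. Those came from one- or two-exponential decay fits to per-tile medians normalised to baseline and to non-cleaving reference variants. The variants were barcoded ribozymes transcribed in situ by E. coli RNA polymerase on sequenced MiSeq chips and tracked through a hybridised Cy3 probe at 37 °C, with 40 μM to 10 mM glucosamine-6-phosphate in HEPES/KCl/Mg(OAc)2 buffer flowed in.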

glucosamine-6-phosphate [2] = variants of: B1; experiment: self-cleavage kobs at 640 uM GlcN6P; higher = faster cleavage; RNA array
Summary of the method: as §1

glucosamine-6-phosphate [3] = variants of: B1; experiment: self-cleavage kobs at 10000 uM GlcN6P; higher = faster cleavage; RNA array
Summary of the method: as §1

glucosamine-6-phosphate [4] = variants of: B1; experiment: self-cleavage kobs at 160 uM GlcN6P; higher = faster cleavage; RNA array
Summary of the method: as §1

glucosamine-6-phosphate [5] = variants of: B1; experiment: self-cleavage kobs at 2500 uM GlcN6P; higher = faster cleavage; RNA array
Summary of the method: as §1

Row | Variant | self-cleavage kobs at 40 uM GlcN6P (glucosamine-6-phosphate [1]) [s⁻¹] | self-cleavage kobs at 640 uM GlcN6P (glucosamine-6-phosphate [2]) [s⁻¹] | self-cleavage kobs at 10000 uM GlcN6P (glucosamine-6-phosphate [3]) [s⁻¹] | self-cleavage kobs at 160 uM GlcN6P (glucosamine-6-phosphate [4]) [s⁻¹] | self-cleavage kobs at 2500 uM GlcN6P (glucosamine-6-phosphate [5]) [s⁻¹]
1 | AUAAAAGCGCCAGAACUACAGAAAUGUAGUUGACCAGGAGGAGGUUUAUCGAAUUAUCGGCGGAUGCCUCCAAA | < 1e-05 | < 1e-05 | < 1e-05 |  | 
2 | AUAAAAGCGCCAGAACUACAGAAAUGUAGUUGACUUGGAGGAGGUUUAUCGAAUUUUCGGCGGAUGCAUCCAAA | < 1e-05 | < 1e-05 |  | < 1e-05 | < 1e-05
3 | AUAAAAGCGCCAGAACUACAGAAAUGUAGUUGACUAGGAGGAGGUUUAUCGUAUUUUCUGCGGAUGCCUCCAAA | < 1e-05 | < 1e-05 | < 1e-05 |  | < 1e-05
4 | AUAAAAGCGCCAGAACUACAGAAAUGUAGUUGACUAGGAGGAGGCUUAUCGAAUUUUCGGCGGAUGCCUCCAAA | < 1e-05 | < 1e-05 | < 1e-05 | < 1e-05 | < 1e-05
5 | AUAAAAGCGCCAGAACUACAGAAAUGUAGUUGACCAGGAGGAGUUUUAUCGAAUUUUCGGCGGAUGCCUCGAAA | < 1e-05 |  | < 1e-05 |  | 
6 | AUAAAAGCGCCAGAACUACAGAAAUGUAGUUGACUAGGAGGAGAUUUAUCGAAUUUUCGGCGGAUGCCUCCAAA | < 1e-05 | < 1e-05 | < 1e-05 | < 1e-05 | < 1e-05
7 | AUAAAAGCGCCAGAACUACAGAAAUGUAGUUGACUAGGAGGAGCUUUAUCGAAUUUUCGGCGGAUGCCUCCAAA | < 1e-05 |  | < 1e-05 | < 1e-05 | 
8 | AUAAAAGCGCCAGAACUACAGAAAUGUAGUUGACUAGGAGGAGGUUUAUCGAUUUUUCGGCGGAGGCCUACAAA | < 1e-05 |  | < 1e-05 |  | 
9 | AUAAAAGCGCCAGAACUACAGAAAUGUAGUUGACUAGGAGGAGGUUUAUCGAAUUUUGGGCGGAUGCCUCCAAA | < 1e-05 | < 1e-05 |  |  | < 1e-05
10 | AUAAAAGCGCCAGAACUACAGAAAUGUAGUUGACUAGGAGCAGGUUUAUCGAAUUUUCGGCGGAUGCCUCCAAA | < 1e-05 | < 1e-05 | < 1e-05 |  | < 1e-05
11 | AUAAAAGCGCCAGAACUACAGAAAUGUAGUUGACUAGGAGGAGGUUUAUUGAAUUUUCGGCGGAUGGCUCCAAA | 0.000272 ± 0.0001 |  |  |  | 
12 | AUAAAAGCGCCAGAACUACAGAAAUGUAGUUGACCAGGAGGAGGUGUGUCGAAUUUUCGGCGGACGCAUCCAAA | < 1e-05 |  |  |  | 
